Source: the supplement of paper PMC7238544
Where a name gives a salt, the structure may show the parent alone. ± gives the standard deviation of the averaged measurements. The list shows a part of the results.

Experiments:
Settings in all cases: priming compound concentration 100 µM
hAMSC donor 1 [1] = assay: Hoechst total cell count ratio vs vehicle control; higher = more cells (less toxicity)
hAMSC donor 2 [2] = assay: as above
hAMSC donor 1 [3] = assay: transgenic luciferase activity (RLU/mg protein) fold change vs vehicle control (ratio); higher = more transgene expression
hAMSC donor 2 [4] = assay: as above
hAMSC donor 1 [5] = assay: transfection efficiency (EGFP+ cells / Hoechst count) fold change vs vehicle control (ratio); hAMSC are human adipose-derived mesenchymal stem cells given an EGFP-luciferase plasmid by lipofection; higher = enhanced transfection
hAMSC donor 2 [6] = assay: as above
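For Hoechst total cell count ratio vs vehicle control in this document: compound added 30 min before Lipofectamine 3000 lipoplex delivery, triplicate-well means expressed against DMSO vehicle control wells of the same 96-well plate.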
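For transfection efficiency (EGFP+ cells / Hoechst count) fold change vs vehicle control in this document: compounds added 30 min before Lipofectamine 3000 lipoplex transfection, triplicate means relative to DMSO vehicle wells on the same plate, luciferase RLU normalized to BCA total protein.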
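For transgenic luciferase activity (RLU/mg protein) fold change vs vehicle control in this document: compounds in DMSO added 30 min before Lipofectamine 3000 transfection of pEGFP-Luc in 96-well plates, values are means of triplicate wells over DMSO vehicle wells on the same plate.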

| Structure (SMILES) | Hoechst total cell count ratio (hAMSC donor 1 [1]) | Hoechst total cell count ratio (hAMSC donor 2 [2]) | transgenic luciferase activity (hAMSC donor 1 [3]) | transgenic luciferase activity (hAMSC donor 2 [4]) | transfection efficiency (hAMSC donor 1 [5]) | transfection efficiency (hAMSC donor 2 [6]) |
| --- | --- | --- | --- | --- | --- | --- |
| CC(C)c1ccc2c(c1)c(SC(C)(C)C)c(CC(C)(C)C(=O)O)n2Cc1ccc(Cl)cc1 | 1.26 ± 0.1 | 1.3 ± 0.089 | 0.195 ± 0.086 | 0.317 ± 0.016 | 0.373 ± 0.1 | 0.349 ± 0.096 |
| CC[C@@H]1C(=O)OC[C@@H]1Cc1cncn1C [Pilocarpine hydrochloride] | 1.35 ± 0.26 | 1.04 ± 0.054 | 0.594 ± 0.58 | 0.596 ± 0.075 | 1.29 ± 0.18 | 0.82 ± 0.077 |
| O=C(CCNNC(=O)c1ccncc1)NCc1ccccc1 [Nialamide] | 1.34 ± 0.18 | 1.3 ± 0.072 | 1.24 ± 0.77 | 0.946 ± 0.17 | 1.16 ± 0.21 | 1.12 ± 0.065 |
| OCCN1CCN(CCCN2c3ccccc3Sc3ccc(Cl)cc32)CC1 [Perphenazine] | 0.124 ± 0.039 | 0.305 ± 0.15 | 0.00393 ± 0.0028 | 0.000664 ± 0.00015 | 0.852 ± 0.47 | 0.0358 ± 0.062 |
| O=C(NCCN1CCOCC1)c1ccc(Cl)cc1 [Moclobemide] | 1.29 ± 0.12 | 1.13 ± 0.15 | 0.512 ± 0.34 | 0.855 ± 0.059 | 1.12 ± 0.57 | 1.03 ± 0.17 |
| N[C@@H](C(=O)N[C@@H]1C(=O)N2C(C(=O)O)=C(Cl)CS[C@H]12)c1ccccc1 [Cefaclor] | 1.27 ± 0.29 | 1.51 ± 0.33 | 1.08 ± 0.35 | 0.531 ± 0.13 | 0.727 ± 0.14 | 0.82 ± 0.085 |
| CN1CCN(C2=Nc3cc(F)ccc3Cc3ccccc32)CC1 [Fluperlapine] | 0.997 ± 0.14 | 0.852 ± 0.041 | 0.206 ± 0.16 | 0.577 ± 0.087 | 1.26 ± 0.33 | 0.873 ± 0.16 |
| CCc1ccc(CCOc2ccc(CC3SC(=O)NC3=O)cc2)nc1 (stereo not given) [Pioglitazone hydrochloride] | 3.03 ± 0.13 | 1.12 ± 0.11 | 0.531 ± 0.15 | 0.817 ± 0.58 | 2.04 ± 0.054 | 2.65 ± 0.41 |
| O=c1[nH]c(=O)n(C2CCCO2)cc1F (stereo not given) [Tegafur] | 1.4 ± 0.19 | 1.33 ± 0.12 | 1.1 ± 0.42 | 1.04 ± 0.14 | 1.25 ± 0.033 | 0.895 ± 0.2 |
| Oc1ccc(C2CNCCc3c2cc(O)c(O)c3Cl)cc1 (stereo not given) [Fenoldopam mesylate] | 1.74 ± 0.22 | 1.13 ± 0.11 | 1.19 ± 0.15 | 0.957 ± 0.23 | 0.899 ± 0.25 | 0.418 ± 0.074 |
| CCCN1CCCC[C@H]1C(=O)Nc1c(C)cccc1C [Ropivacaine hydrochloride] | 1.19 ± 0.082 | 1.27 ± 0.27 | 1.87 ± 1.5 | 0.69 ± 0.18 | 0.865 ± 0.23 | 1 ± 0.26 |
| Cc1onc(-c2ccccc2)c1-c1ccc(S(N)(=O)=O)cc1 [Valdecoxib] | 1.28 ± 0.2 | 1.26 ± 0.33 | 1.23 ± 0.3 | 0.224 ± 0.044 | 0.841 ± 0.084 | 1.05 ± 0.21 |
| CC1=Nc2ccc(Cl)cc2S(=O)(=O)N1 [Diazoxide] | 1.24 ± 0.15 | 1.16 ± 0.044 | 0.987 ± 0.23 | 0.819 ± 0.15 | 1 ± 0.28 | 0.743 ± 0.073 |
| CC[C@]1(O)C[C@@H]2CN(CCc3c([nH]c4ccccc34)[C@@](C(=O)OC)(c3cc4c(cc3OC)N(C)[C@H]3[C@@](O)(C(N)=O)[C@H](O)[C@]5(CC)C=CCN6CC[C@]43[C@@H]65)C2)C1 [Vindesine sulfate] | 0.597 ± 0.049 | 0.439 ± 0.042 | 0.533 ± 0.22 | 1.61 ± 0.27 | 0.847 ± 0.1 | 1.42 ± 0.18 |
| COc1nc(C)nc(Cl)c1NC1=NCCN1 [Moxonidine hydrochloride] | 2.25 ± 0.19 | 1.06 ± 0.018 | 1.4 ± 0.34 | 1.76 ± 0.57 | 0.824 ± 0.091 | 0.937 ± 0.093 |
| CN(C)CCCSc1ccccc1NC(=O)/C=C/c1ccccc1 [Cinanserin] | 1.1 ± 0.06 | 1.12 ± 0.092 | 0.849 ± 0.41 | 0.39 ± 0.069 | 1.01 ± 0.14 | 0.624 ± 0.094 |
| CC(C[N+](C)(C)C)OC(N)=O (stereo not given) [Bethanechol chloride] | 1.24 ± 0.093 | 1.55 ± 0.19 | 0.709 ± 0.39 | 0.615 ± 0.049 | 0.888 ± 0.3 | 0.89 ± 0.059 |
| C[C@H](CS)C(=O)N1CCC[C@H]1C(=O)O [Captopril] | 1.27 ± 0.19 | 1.66 ± 0.28 | 0.862 ± 0.68 | 0.725 ± 0.11 | 0.9 ± 0.13 | 0.758 ± 0.18 |
| C[C@@H]1O[C@@H](OC[C@H]2O[C@@H](Oc3c(-c4ccc(O)c(O)c4)oc4cc(O)cc(O)c4c3=O)[C@H](O)[C@@H](O)[C@@H]2O)[C@H](O)[C@H](O)[C@H]1O [Rutin] | 1.21 ± 0.14 | 0.821 ± 0.34 | 1.19 ± 0.52 | 0.268 ± 0.052 | 1.48 ± 0.69 | 0.5 ± 0.15 |
| CCc1oc2ccccc2c1C(=O)c1cc(Br)c(O)c(Br)c1 [Benzbromarone] | 1.4 ± 0.12 | 1.14 ± 0.13 | 0.281 ± 0.082 | 0.647 ± 0.076 | 0.951 ± 0.18 | 0.859 ± 0.098 |
| CC(=O)O[C@]1(C(C)=O)CC[C@H]2[C@@H]3C=C(C)C4=CC(=O)CC[C@]4(C)[C@H]3CC[C@@]21C [Megestrol acetate] | 1.57 ± 0.21 | 0.927 ± 0.2 | 1.38 ± 0.73 | 2.69 ± 0.26 | 2.57 ± 2.2 | 2.69 ± 1.5 |
| C[C@]12C[C@H](O)[C@H]3[C@@H](CCC4=CC(=O)CC[C@@]43C)[C@@H]1CC[C@@H]2C(=O)CO [Corticosterone] | 1.36 ± 0.021 | 0.883 ± 0.12 | 2.78 ± 0.19 | 1.13 ± 0.55 | 1.25 ± 0.26 | 1.53 ± 0.13 |
| CC(C)[C@H]1CC[C@H](C(=O)N[C@H](Cc2ccccc2)C(=O)O)CC1 [Nateglinide] | 1.23 ± 0.17 | 0.942 ± 0.13 | 1.37 ± 0.2 | 0.551 ± 0.084 | 0.957 ± 0.24 | 1.21 ± 0.08 |
| COc1ccccc1OCC(O)COC(N)=O (stereo not given) [Methocarbamol] | 1.12 ± 0.092 | 1.39 ± 0.074 | 1.82 ± 0.28 | 0.833 ± 0.081 | 1.2 ± 0.25 | 0.85 ± 0.067 |
| Nc1c2c(nc3c1CCC3)CCCC2 [Ipidacrine] | 1.13 ± 0.13 | 1.28 ± 0.082 | 0.219 ± 0.086 | 0.526 ± 0.13 | 0.76 ± 0.23 | 0.849 ± 0.016 |
